Source: the supplement of paper PMC8047034
Counter-ions that a name gives are not always drawn. Some of the results follow. Many values rest on one well or one pass, so single values are uncertain.

Tests used:
OVCAR4 = test: log2 surviving fraction (library drug vs vehicle, or drug + carboplatin vs carboplatin alone; relative to plate median); ovarian cancer lines: OVCAR4 is platinum-sensitive and Ov4Carbo platinum-resistant; higher = more cell survival; settings: library drug concentration 10 µM, 7 days
Ov4Carbo = test: as above; settings: library drug concentration 10 µM, 7 days

SMILES | log2 surviving fraction (OVCAR4; carboplatin co-treatment 0 µM) | log2 surviving fraction (OVCAR4; carboplatin co-treatment 5 µM) | log2 surviving fraction (Ov4Carbo; carboplatin co-treatment 0 µM) | log2 surviving fraction (Ov4Carbo; carboplatin co-treatment 5 µM)
CO[C@@]1(NC(=O)C(C(=O)O)c2ccc(O)cc2)C(=O)N2C(C(=O)O)=C(CSc3nnnn3C)CO[C@@H]21 (some centres not stated) [Moxalactam Disodium] | -0.173 | -0.177 | -0.408 | -0.43
CCOC(=O)OC(C)OC1=C(C(=O)Nc2ccccn2)N(C)S(=O)(=O)c2ccccc21 (configuration not stated) [Ampiroxicam] | 0.513 | 0.565 | 0.213 | 0.978
O=C1CCc2cc(OCCCCc3nnnn3C3CCCCC3)ccc2N1 [Cilostazol] | 0.95 | 0.943 | -0.0949 | 0.275
COc1cnc(NS(=O)(=O)c2ccc(N)cc2)nc1 [Sulfameter (Bayrena)] | 0.617 | 0.122 | 0.284 | 0.171
C[C@]12C=CC(=O)C=C1CC[C@@H]1[C@@H]2C(=O)C[C@@]2(C)[C@H]1CC[C@]2(O)C(=O)CO [Prednisone (Adasone)] | 0.557 | 0.36 | 0.161 | -0.403
NCC(O)c1ccc(O)cc1 (racemic) [(+,-)-Octopamine HCl] | 0.41 | -0.0935 | -0.574 | -0.439
Cc1nc2c([nH]1)-c1ccccc1N(C(=O)c1ccc(NC(=O)c3ccccc3-c3ccccc3)cc1)CC2 [Conivaptan HCl (Vaprisol)] | -2.18 | -0.747 | -1.19 | -1.72
Nc1nnc(-c2cccc(Cl)c2Cl)c(N)n1 [Lamotrigine] | 0.481 | 0.00139 | -0.575 | -0.109
O=C(O)c1ccc(-n2nc(-c3ccccc3O)nc2-c2ccccc2O)cc1 [Deferasirox (Exjade)] | -6.18 | -4.28 | -4.8 | -4.73
Cc1ccc(C(=O)c2ccc(CC(=O)O)n2C)cc1 [Tolmetin Sodium] | 1.43 | 1.14 | 0.453 | 0.752
CCCc1ncc(C[n+]2ccccc2C)c(N)n1 [Amprolium HCl] | 0.906 | 1.46 | 0.608 | 0.72
Cc1c(-c2ccccc2)oc2c(C(=O)OCCN3CCCCC3)cccc2c1=O [Flavoxate HCl] | 0.753 | 1.67 | 1.08 | 1.12
CN(C)c1ccc(O)c2c1C[C@H]1C[C@H]3[C@H](N(C)C)C(O)=C(C(N)=O)C(=O)[C@@]3(O)C(O)=C1C2=O [Minocycline HCl] | 0.685 | 0.211 | 0.558 | 0.424
N=C(N)NCCN1CCCCCCC1 [Guanethidine Sulfate] | -0.74 | -0.238 | -0.627 | -1.57
C[C@H](Cc1cc2c(c(C(N)=O)c1)N(CCCO)CC2)NCCOc1ccccc1OCC(F)(F)F [Silodosin (Rapaflo)] | 0.0425 | -0.651 | 0.441 | -0.726
OCC(CO)N[C@H]1C[C@](O)(CO)[C@@H](O)[C@H](O)[C@H]1O [Voglibose] | 1.07 | 0.433 | 0.642 | 0.525
CCn1cc(C(=O)O)c(=O)c2cc(F)c(N3CCNC(C)C3)c(F)c21 (configuration not stated) [Lomefloxacin hydrochloride (Maxaquin)] | -0.602 | 0.459 | 0.714 | 0.348
C=C1CC[C@@]2(O)[C@H]3Cc4ccc(O)c5c4[C@@]2(CCN3CC2CC2)[C@H]1O5 [Nalmefene HCl] | -0.286 | -0.265 | -0.24 | 0.0544
Nc1nc(F)nc2c1ncn2[C@@H]1O[C@H](CO)[C@@H](O)[C@@H]1O [Fludarabine (Fludara)] | -0.345 | -1.64 | -2.38 | -1.3
O=c1c(-c2ccc(O)cc2)coc2cc(O)cc(O)c12 [Genistein] | 0.915 | -0.913 | -0.221 | -0.171
Nc1nc2ccc(OC(F)(F)F)cc2s1 [Riluzole (Rilutek)] | 0.174 | -0.731 | 0.184 | -0.668
CN1C(C(=O)Nc2ccccn2)=C(O)c2sc(Cl)cc2S1(=O)=O [Lornoxicam (Xefo)] | 0.651 | -0.254 | 0.783 | -0.366
Cn1c(=O)c2c(ncn2CC(O)CO)n(C)c1=O (configuration not stated) [Dyphylline (Dilor)] | 1.14 | 0.418 | -0.136 | 0.411
CCCCC1(COC(=O)CCC(=O)O)C(=O)N(c2ccccc2)N(c2ccccc2)C1=O [Suxibuzone] | 0.756 | -0.356 | 0.355 | 0.172
CNC(=C[N+](=O)[O-])NCCSCc1csc(CN(C)C)n1 [Nizatidine] | -0.000587 | -0.29 | 0.217 | -0.184
CC(NCCc1ccc(O)cc1)C(O)c1ccc(O)cc1 (configuration not stated) [Ritodrine hydrochloride (Yutopar)] | -0.39 | -0.614 | -0.285 | 0.0177
OCC(O)CN1CCN(c2ccccc2)CC1 (configuration not stated) [Dropropizine] | 0.97 | 1.09 | 1.22 | 0.314
CCOC(=O)C1=C(C)NC(C)=C(C(=O)OCC)C1c1ccccc1/C=C/C(=O)OC(C)(C)C [Lacidipine (Lacipil, Motens)] | -0.0999 | -0.747 | 0.564 | -1.86
